{
  "source": "PubChem BioAssay AID463173",
  "about": "(ICCB-Longwood Screening Facility, Harvard Medical School, 2010)",
  "note": "In all, about 52,000 compounds went through this assay and about 1,700 (3.3%) were called active. Rule as the data show it: active = survival mostly below about 52% (no sharp cut-off); inactive = mostly above about 56%. The list shows a part of the results.",
  "data": [
    {"system": "Wild type", "experiment": "S. aureus survival, RN4220 and DeltatarO strains – OD600, teichoic acid synthesis inhibitors, primary screen (AID 463173)", "details": "S. aureus RN4220 wild type/DeltatarO growth, OD600, 18 h, stronger effect = lower value, screened at 18.75 µg/mL (by protocol)", "values": [
      {"molecule": "CCN1CCC(N(Cc2ccc(F)cc2)C(=O)Nc2cc(C)ccc2C)CC1", "survival": "inactive: 71%"},
      {"molecule": "CCOc1ccccc1CNc1ncnc2onc(-c3ccc(F)cc3)c12", "survival": "inactive: 81%"},
      {"molecule": "CC1CCCCN1C(=O)CSc1nc2ccccc2nc1Cc1ccccc1", "note": "(stereo not given)", "survival": "inactive: 71%"},
      {"molecule": "COc1ccc(-n2cc(C(=O)NCCc3ccc(C)cc3)c3ccccc3c2=O)cc1", "survival": "inactive: 82%"},
      {"molecule": "NC(=O)C1CCCN(C(=O)Nc2c[nH]c3ccccc3c2=O)C1", "note": "(stereo not given)", "survival": "inactive: 113%"},
      {"molecule": "COC(=O)c1ccc(C2CC(=O)Nc3c2c(C)nn3-c2nc(C)cc(C)n2)cc1", "note": "(stereo not given)", "survival": "inactive: 84%"},
      {"molecule": "COc1ccc(CNC(=O)c2ccc3c(c2)N=C(C)c2c(C)ccc(C)c2S3)cc1", "survival": "inactive: 91%"},
      {"molecule": "Cc1cc(C)cc(NC(=O)CC(C)n2nc(C)cc2C)c1", "note": "(stereo not given)", "survival": "inactive: 83%"},
      {"molecule": "O=C(Cn1ccc2cc(S(=O)(=O)N3CCCC3)ccc21)NCc1ccc(Cl)cc1", "survival": "inactive: 72%"},
      {"molecule": "CCn1c(SC)nc2c([nH]c3ccccc32)c1=O", "survival": "inactive: 80%"},
      {"molecule": "COc1cc(NC(=O)Cn2c(=O)n(Cc3ccccc3)c(=O)c3oc4ccccc4c32)cc(OC)c1", "survival": "inactive: 72%"},
      {"molecule": "CCOC(=O)c1c(S(=O)(=O)N2CCC(C(=O)Nc3ccc(C)cn3)CC2)c(C)n(C)c1C", "survival": "inactive: 70%"},
      {"molecule": "CCOC(=O)c1cc2c(ccn2C)n1CC(=O)NC(c1ccccc1)c1ccccc1", "survival": "inactive: 108%"},
      {"molecule": "O=C(Nc1ccc(F)cc1)C1CCN(c2nc3ccccc3nc2C(F)(F)F)CC1", "survival": "inactive: 128%"},
      {"molecule": "COc1ccc(-c2noc(CC(=O)N(C)c3ccccc3F)n2)cc1", "survival": "inactive: 84%"},
      {"molecule": "Cc1cc(-c2ccc(S(=O)(=O)Nc3ccccc3C)cc2)on1", "survival": "inactive: 69%"},
      {"molecule": "COc1ccc(NC(=O)C2=C(C)Nc3nc(SCc4ccc(C)cc4C)nn3C2c2cccc(OC)c2OC)cc1", "note": "(stereo not given)", "survival": "inactive: 77%"},
      {"molecule": "Cc1cccc(NC(=O)c2ccccc2)n1", "survival": "inactive: 107%"},
      {"molecule": "O=C(O)C1C2C=CC(O2)C1C(=O)Nc1ccccc1", "note": "(stereo not given)", "survival": "inactive: 99%"},
      {"molecule": "COc1cc(-c2ccno2)ccc1S(=O)(=O)N1CCN(c2cccc(Cl)c2)CC1", "survival": "active: -3%"},
      {"molecule": "CCOc1ccc(CNC(=O)Cn2nc(C)c3nn(-c4ccc(Cl)cc4)c(C)c3c2=O)cc1", "survival": "inactive: 128%"},
      {"molecule": "Cc1nc(N=C(N)N)nc2cc3c(cc12)OCO3", "survival": "inactive: 92%"},
      {"molecule": "Cc1[nH]c(=O)[nH]c(=O)c1S(=O)(=O)Nc1cccc(Cl)c1C", "survival": "inactive: 65%"},
      {"molecule": "Cc1ccc(CNC(=O)c2oc3ccc(S(=O)(=O)N4CCCC(C)C4)cc3c2C)cc1", "note": "(stereo not given)", "survival": "inactive: 66%"},
      {"molecule": "Cc1oc2ncnc(N3CCCCC3)c2c1C(=O)NCC1CCN(Cc2ccccc2F)CC1", "survival": "inactive: 76%"},
      {"molecule": "COc1ccccc1NC(=O)c1sc2nc(-c3cc4cc(Cl)ccc4oc3=O)[nH]c(=O)c2c1C", "survival": "inactive: 83%"},
      {"molecule": "COc1ccc(OC)c(NC(=O)Cn2nc3c(cc2=O)CCCC3)c1", "survival": "inactive: 83%"},
      {"molecule": "COC(=O)Nc1c(-c2ccccc2)nc2ccc(C)cn12", "survival": "inactive: 105%"},
      {"molecule": "CCc1ccc(NC(=O)CC2C(=O)N(c3cccc(C)c3)C(=O)N2Cc2cccc(OC)c2)cc1", "note": "(stereo not given)", "survival": "inactive: 79%"},
      {"molecule": "COc1ccc(CCNS(=O)(=O)c2ccc3c(c2)c(=O)n(C)c(=O)n3C)cc1OC", "survival": "inactive: 80%"},
      {"molecule": "CC1(C(=O)NN)NC2(CCCCC2)Cc2ccccc21", "note": "(stereo not given)", "survival": "inactive: 108%"},
      {"molecule": "Cc1ccc(NC(=O)CCCc2nnc3n(C)c(=O)c4sccc4n23)cc1C", "survival": "inactive: 105%"},
      {"molecule": "CCc1nn(CC(=O)NCc2ccco2)c(=O)c2cc3cc(F)ccc3n12", "survival": "inactive: 124%"},
      {"molecule": "Cc1ccc(NC(=O)c2nc(S(C)(=O)=O)ncc2N(Cc2cccc(F)c2)Cc2ccco2)cc1C", "survival": "inactive: 85%"},
      {"molecule": "NS(=O)(=O)c1ccc(NC(=O)c2cc(-c3cccs3)nc3ccccc23)cc1", "survival": "inactive: 130%"},
      {"molecule": "CCc1nnc(NC(=O)c2ccc(S(=O)(=O)N3CCc4ccccc4C3)cc2)s1", "survival": "inactive: 107%"},
      {"molecule": "COCC(=O)N1CCN(c2ncnc3c(-c4ccc(Cl)cc4)nsc23)CC1", "survival": "inactive: 114%"},
      {"molecule": "CCOc1ccc(N(CC)S(=O)(=O)N2CCCC(C(=O)NCCc3ccc(OC)cc3)C2)cc1", "note": "(stereo not given)", "survival": "inactive: 76%"},
      {"molecule": "CCN(CC)S(=O)(=O)c1ccc2oc(C(=O)NCc3ccccc3OC)c(C)c2c1", "survival": "inactive: 90%"},
      {"molecule": "Cc1ccc(C)c(N2CCN(C(=O)c3cc(S(=O)(=O)N4CCCCCC4)cn3C)CC2)c1", "survival": "inactive: 77%"},
      {"molecule": "COCCCNC(=O)c1ccc(Cn2c(SCc3cccc(C)c3)nc3cccnc32)cc1", "survival": "inactive: 68%"},
      {"molecule": "Cc1ccc(S(=O)(=O)NCC2CCC(C(=O)NCCc3ccc(Cl)cc3)CC2)cc1", "note": "(stereo not given)", "survival": "inactive: 82%"},
      {"molecule": "Cc1cccc2sc(N(CCCN(C)C)C(=O)COc3ccccc3)nc12", "survival": "inactive: 120%"},
      {"molecule": "CCNc1ncnc2c1oc1ccccc12", "survival": "inactive: 101%"},
      {"molecule": "COC(=O)c1ccccc1NC(=O)Cn1c(=O)n(-c2cccc(C(F)(F)F)c2)c(=O)c2c(C)c(C)sc21", "survival": "inactive: 82%"}
    ]}
  ]
}
